Results on 31 molecules are retold here after article PMC9911399, “Two distinct binding modes provide the RNA-binding protein RbFox with extraordinary sequence specificity”.

T1: RBFOX1 RRM (Homo sapiens, UniProt Q9NWB1 109-208)
T1 sequence: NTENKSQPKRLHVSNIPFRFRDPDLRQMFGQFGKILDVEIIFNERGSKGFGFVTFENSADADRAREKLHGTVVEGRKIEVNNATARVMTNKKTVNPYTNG

B1: GGGUACA (DNA:RNA)
RNA: GGGAGACCGGAAUUCAGAUUGUCCGGGUACAUUAAAUCCCGUCGUAGCCACCA
DNA 1: CAATCTGAATTCCGGTCTCCC
DNA 2: TGGTGGCTACGACGGGATT
B2: CCGGGGG (DNA:RNA)
RNA: B1 RNA with G25C, G26C, U28G, A29G, C30G, A31G
DNA 1: CAATCTGAATTCCGGTCTCCC
DNA 2: TGGTGGCTACGACGGGATT
B3: AGUCCUC (DNA:RNA)
RNA: B1 RNA with G25A, G27U, U28C, A29C, C30U, A31C
DNA 1: CAATCTGAATTCCGGTCTCCC
DNA 2: TGGTGGCTACGACGGGATT
B4: GGAGAAC (DNA:RNA)
RNA: B1 RNA with G27A, U28G, C30A, A31C
DNA 1: CAATCTGAATTCCGGTCTCCC
DNA 2: TGGTGGCTACGACGGGATT
B5: CACCUUG (DNA:RNA)
RNA: GGGAGACCGGAAUUCAGAUUGUCCCACCUUGUUAAAUCCCGUCGUAGCCACCA
DNA 1: CAATCTGAATTCCGGTCTCCC
DNA 2: TGGTGGCTACGACGGGATT
B6: UAUACUU (DNA:RNA)
RNA: B5 RNA with C25U, C27U, C28A, U29C, G31U
DNA 1: CAATCTGAATTCCGGTCTCCC
DNA 2: TGGTGGCTACGACGGGATT
B7: UAUGCGU (DNA:RNA)
RNA: B5 RNA with C25U, C27U, C28G, U29C, U30G, G31U
DNA 1: CAATCTGAATTCCGGTCTCCC
DNA 2: TGGTGGCTACGACGGGATT
B8: CUGGCGU (DNA:RNA)
RNA: B5 RNA with A26U, C27G, C28G, U29C, U30G, G31U
DNA 1: CAATCTGAATTCCGGTCTCCC
DNA 2: TGGTGGCTACGACGGGATT
B9: UGCAGGA (DNA:RNA)
RNA: B1 RNA with G25U, G27C, U28A, A29G, C30G
DNA 1: CAATCTGAATTCCGGTCTCCC
DNA 2: TGGTGGCTACGACGGGATT
B10: ACGUUUU (DNA:RNA)
RNA: B5 RNA with C25A, A26C, C27G, C28U, G31U
DNA 1: CAATCTGAATTCCGGTCTCCC
DNA 2: TGGTGGCTACGACGGGATT
B11: GUUUCUC (DNA:RNA)
RNA: B1 RNA with G26U, G27U, A29C, C30U, A31C
DNA 1: CAATCTGAATTCCGGTCTCCC
DNA 2: TGGTGGCTACGACGGGATT
B12: UCCGAAA (DNA:RNA)
RNA: B1 RNA with G25U, G26C, G27C, U28G, C30A
DNA 1: CAATCTGAATTCCGGTCTCCC
DNA 2: TGGTGGCTACGACGGGATT
B13: GGUGAAA (DNA:RNA)
RNA: B1 RNA with G27U, U28G, C30A
DNA 1: CAATCTGAATTCCGGTCTCCC
DNA 2: TGGTGGCTACGACGGGATT
B14: ACUCUCU (DNA:RNA)
RNA: B5 RNA with C25A, A26C, C27U, U30C, G31U
DNA 1: CAATCTGAATTCCGGTCTCCC
DNA 2: TGGTGGCTACGACGGGATT
B15: UCUUAUA (DNA:RNA)
RNA: B1 RNA with G25U, G26C, G27U, C30U
DNA 1: CAATCTGAATTCCGGTCTCCC
DNA 2: TGGTGGCTACGACGGGATT
B16: AAGAAAA (DNA:RNA)
RNA: B1 RNA with G25A, G26A, U28A, C30A
DNA 1: CAATCTGAATTCCGGTCTCCC
DNA 2: TGGTGGCTACGACGGGATT
B17: CCACGGG (DNA:RNA)
RNA: B5 RNA with A26C, C27A, U29G, U30G
DNA 1: CAATCTGAATTCCGGTCTCCC
DNA 2: TGGTGGCTACGACGGGATT
B18: CGAUCGC (DNA:RNA)
RNA: B1 RNA with G25C, G27A, A29C, C30G, A31C
DNA 1: CAATCTGAATTCCGGTCTCCC
DNA 2: TGGTGGCTACGACGGGATT
B19: CGAUAAG (DNA:RNA)
RNA: B1 RNA with G25C, G27A, C30A, A31G
DNA 1: CAATCTGAATTCCGGTCTCCC
DNA 2: TGGTGGCTACGACGGGATT
B20: GGAUGCA (DNA:RNA)
RNA: B1 RNA with G27A, A29G
DNA 1: CAATCTGAATTCCGGTCTCCC
DNA 2: TGGTGGCTACGACGGGATT
B21: ACUUUAA (DNA:RNA)
RNA: B1 RNA with G25A, G26C, G27U, A29U, C30A
DNA 1: CAATCTGAATTCCGGTCTCCC
DNA 2: TGGTGGCTACGACGGGATT
B22: GGUAUUU (DNA:RNA)
RNA: B5 RNA with C25G, A26G, C27U, C28A, G31U
DNA 1: CAATCTGAATTCCGGTCTCCC
DNA 2: TGGTGGCTACGACGGGATT
B23: UUGCCGU (DNA:RNA)
RNA: B5 RNA with C25U, A26U, C27G, U29C, U30G, G31U
DNA 1: CAATCTGAATTCCGGTCTCCC
DNA 2: TGGTGGCTACGACGGGATT
B24: UUUGUAC (DNA:RNA)
RNA: B5 RNA with C25U, A26U, C27U, C28G, U30A, G31C
DNA 1: CAATCTGAATTCCGGTCTCCC
DNA 2: TGGTGGCTACGACGGGATT
B25: UGAAGAU (DNA:RNA)
RNA: B1 RNA with G25U, G27A, U28A, A29G, C30A, A31U
DNA 1: CAATCTGAATTCCGGTCTCCC
DNA 2: TGGTGGCTACGACGGGATT
B26: UCCAGUG (DNA:RNA)
RNA: B5 RNA with C25U, A26C, C28A, U29G
DNA 1: CAATCTGAATTCCGGTCTCCC
DNA 2: TGGTGGCTACGACGGGATT
B27: AGUGCUC (DNA:RNA)
RNA: B5 RNA with C25A, A26G, C27U, C28G, U29C, G31C
DNA 1: CAATCTGAATTCCGGTCTCCC
DNA 2: TGGTGGCTACGACGGGATT
B28: GCGUGCG (DNA:RNA)
RNA: B1 RNA with G26C, A29G, A31G
DNA 1: CAATCTGAATTCCGGTCTCCC
DNA 2: TGGTGGCTACGACGGGATT
B29: CCCGGCG (DNA:RNA)
RNA: B5 RNA with A26C, C28G, U29G, U30C
DNA 1: CAATCTGAATTCCGGTCTCCC
DNA 2: TGGTGGCTACGACGGGATT
B30: CCGAACG (DNA:RNA)
RNA: B1 RNA with G25C, G26C, U28A, A31G
DNA 1: CAATCTGAATTCCGGTCTCCC
DNA 2: TGGTGGCTACGACGGGATT
B31: GAUACGG (DNA:RNA)
RNA: B5 RNA with C25G, C27U, C28A, U29C, U30G
DNA 1: CAATCTGAATTCCGGTCTCCC
DNA 2: TGGTGGCTACGACGGGATT

Residue numbers refer to the chain shown, from its start. The list shows a part of the results.

This experiment concerns the target T1, RBFOX1 RRM. The experiment can be described thus: EMSA; HiTS-Eq, 1 nM pool, 10 min; buffer printed only for the single-RNA assays: 10 mM Tris pH 7.5, 150 mM NaCl, 3.4 mM EDTA, 0.001% NP-40, 30 C. The settings on record: tags: His6 N-terminal (pET28a); label: 5' 32P. The essentials:
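A pool of RNA with 7 randomized nucleotides, 5′-radiolabelled and with DNA-annealed flanks, was equilibrated at 1 nM for 10 min in 50 µL with purified RbFox RRM, wild type or mutant, across increasing protein concentrations. Free RNA was separated by 8% native PAGE, excised, reverse-transcribed, barcoded by PCR and sequenced. Relative association constants were obtained from read-count changes of each RNA species versus the control reaction and normalised to the cognate motif.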
On the technique in general: A gel shift assay detects complexes by their altered migration in electrophoresis.
In the case of B1, the binding signal is 0.0112 KA relative to UGCAUGU.
The figure for B2 is 0.00756 KA relative to UGCAUGU; for B3 it is 0.0032 KA relative to UGCAUGU; for B4 it is 0.0229 KA relative to UGCAUGU.
The figure for B5 is 0.00705 KA relative to UGCAUGU; for B6 it is 0.00169 KA relative to UGCAUGU.
As for B7, the binding signal is 0.0177 KA relative to UGCAUGU.
The figure for B8 is 0.0208 KA relative to UGCAUGU; for B9 it is 0.0112 KA relative to UGCAUGU; for B10 it is 0.00473 KA relative to UGCAUGU.
Under B11 stands 0.0255 KA relative to UGCAUGU.
The figure for B12 is 0.00597 KA relative to UGCAUGU; for B13 it is 0.00209 KA relative to UGCAUGU; for B14 it is 0.0042 KA relative to UGCAUGU.
As for B15, the binding signal was 0.00158 KA relative to UGCAUGU.
As to B16, the binding signal was 0.00198 KA relative to UGCAUGU.
For the molecule B17, the binding signal is 0.00324 KA relative to UGCAUGU.
The figure for B18 is 0.0152 KA relative to UGCAUGU.
Under B19 stands 0.0101 KA relative to UGCAUGU; under B20, 0.0274 KA relative to UGCAUGU; under B21, 0.00309 KA relative to UGCAUGU.
The figure for B22 is 0.00308 KA relative to UGCAUGU.
On to B23, for which the binding signal was 0.0175 KA relative to UGCAUGU.
The figure for B24 is 0.0156 KA relative to UGCAUGU; for B25 it is 0.0226 KA relative to UGCAUGU.
As for B26, the binding signal is 0.0101 KA relative to UGCAUGU.
With B27, the binding signal is 0.0177 KA relative to UGCAUGU.
For the molecule B28, the binding signal is 0.017 KA relative to UGCAUGU.
The figure for B29 is 0.0137 KA relative to UGCAUGU; for B30 it is 0.0118 KA relative to UGCAUGU; for B31 it is 0.00671 KA relative to UGCAUGU.
